Measured values published in PubChem BioAssay AID686979 (National Center for Advancing Translational Sciences (NCATS), 2013).
The whole screen tested about 420,000 compounds, of which about 50,000 (12%) were called active. The inconclusive results got no clear call from the source; some entries with a clear call stand among them for comparison. The call rests on the fitted dose curve; in most records, active means well fitted inhibition curve with a large enough effect; inconclusive means small, poorly fitted or top-dose-only effect; inactive means flat fitted curve, though single readings scatter. No potency is given beside an inconclusive call; the fits are too rough.

assay: qHTS for Inhibitors of human tyrosyl-DNA phosphodiesterase 1 (TDP1): qHTS in cells in presence of CPT; conditions: chicken DT40 Tdp1-/-;hTDP1 cells + 20 nM CPT, ATP luminescence, 48 h; activity change, negative = growth inhibition: at 46.2 µM (top of the series) unless noted; further: nearly all actives have a fitted effect of over 55% in size
Outline: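 Chicken DT40 Tdp1-/- cells stably complemented with human TDP1 were seeded at 400 cells/well in medium containing 20 nM camptothecin, exposed to pin-transferred compounds, and grown at 37 °C for at least 48 hr. Viability was read as ATP luminescence.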
On the % scale 0 is the no-effect control and ±100 the full control effect; potency means the concentration at half of the fitted maximal effect; tags describe the fitted curve by direction and shape.

| SMILES | Potency | activity change, negative = growth inhibition |
| --- | --- | --- |
| CSc1nc(SCC(=O)NC(c2ccccc2)c2ccccc2)c2c3c(sc2n1)CN(C)CC3 | inconclusive [inhibitor, single point] | – |
| O=C1c2ccccc2C(=O)N1CCCOc1ccccc1 | – | inactive: 6.88% |
| COc1ccc2[nH]c(=O)c(CN(Cc3cccnc3)C(=O)Nc3ccccc3)cc2c1 | inconclusive [inhibitor, single point] | – |
| N#Cc1cccc(NC(=O)CN2CCCCCC2)c1 | – | inactive: 40.9% |
| Cc1ccc(-c2c(C(=O)N3CCOCC3)oc(=O)c3ccccc23)cc1 | – | inactive: 4.52% |
| CCCCC[n+]1ccn(C2=C([O-])c3ccccc3C(=O)/C2=N\S(=O)(=O)c2ccc(Cl)cc2)c1 | active: 4.61 µM | – |
| Cc1nc2c(c(C)nn2C(C)(C)C)c(C)c1CCC(=O)Nc1ccc(Br)cc1Br | inconclusive [inhibitor, single point] | – |
| Cc1ccc(-c2cn(-c3ccccc3)c(=S)[nH]2)cc1C | inconclusive [inhibitor, single point] | – |
| OCCC1CN(CC2CCCCC2)CCN1CC1CCCCC1 (stereo unspecified) | – | inactive: -24.9% |
| CC1Oc2ccccc2C=C1/C=N/NC(=O)[C@@H](C)NC(=O)OC(C)(C)C (stereo partly specified) | inconclusive [inhibitor, single point] | – |
| NC(=O)NCc1cccs1 | – | inactive: 8.38% |
| CCOC(=O)C1(C)NC(c2cccs2)C2C(=O)N(c3ccc(OC)cc3)C(=O)C21 (stereo unspecified) | active: 10.3 µM | – |
| CC(CCc1ccco1)NC(=O)Nc1cccc(F)c1 (stereo unspecified) | – | inactive: -24.6% |
| COc1ccccc1N1CCN(C(=O)/C=C/c2ccc(C)cc2)CC1 | inconclusive [inhibitor, single point] | – |
| N#C/C(=C/c1cccs1)c1nc2ccccc2[nH]1 | inconclusive [inhibitor, single point] | – |
| Cc1nn(C2CCS(=O)(=O)C2)c2nc(C3CC3)cc(C(=O)Nc3cccc(C#N)c3)c12 (stereo unspecified) | – | inconclusive: -34.9% [inhibitor] |
| O=C(CSC1=NCCS1)Nc1nc2c(s1)CCCC2 | inconclusive [inhibitor, single point] | – |
| COc1ccc(CC(=O)Nc2cccc(-c3nnc(-c4ccco4)o3)c2)cc1 | active: 7.31 µM | – |
| O=C(COC(=O)c1ccccc1)Nc1cccc(S(=O)(=O)NC2=NCCCCC2)c1 | – | inactive: -23.1% |
| O=S(=O)(NCC(O)c1ccccc1)c1cc(Cl)sc1Cl (stereo unspecified) | inconclusive [inhibitor, partial curve] | – |
| C/C(=N/NC(=O)C1CC1(c1ccccc1)c1ccccc1)c1ccco1 (stereo unspecified) | inconclusive [inhibitor, single point] | – |
| S=C(NCc1ccco1)Nc1cccc(Cl)c1 | – | inactive: -11.6% |
| O=C(CCCN1CCC(O)(c2ccc(Br)cc2)CC1)c1ccc(F)cc1 | inconclusive [inhibitor, single point] | – |
| Cc1ccc(-c2nn(-c3ccccc3)cc2/C=N/NC(=O)CSc2nnc(C)n2-c2ccccc2)cc1 | inconclusive [inhibitor, single point] | – |

| SMILES | Potency | activity change, negative = growth inhibition |
| --- | --- | --- |
| CCN(CC)c1ccc(NC(=O)c2cnc3ccccn3c2=O)c(C)c1 | inconclusive [inhibitor, single point] | – |
| COc1ccc(CN2CSC(=S)N(Cc3ccccc3)C2)cc1 | inconclusive [inhibitor, single point] | – |
| O=c1cc(CN2CCCCCCC2)c2c(ccc3ccccc32)o1 | inconclusive [inhibitor, single point] | – |
| O=c1[nH]c2ccc([N+](=O)[O-])cc2nc1/C=C(\O)c1ccccc1 | inconclusive [inhibitor, single point] | – |
| N#Cc1c(N)nc(SCC(=O)NCCc2ccccc2)c(C#N)c1-c1cccs1 | – | inactive: -4.01% |
| COc1ccc(N2CC(C(=O)OCC(=O)c3ccc(C)cc3)CC2=O)cc1 (stereo unspecified) | – | inactive: -15.8% |
| O=C(O)/C(=C\c1ccc(-c2ccccc2[N+](=O)[O-])o1)c1ccccc1 | – | inactive: -14.7% |
| c1ccc(N2CCN(c3nccn4ccnc34)CC2)nc1 | inconclusive [inhibitor, single point] | – |
| CCCCCNC(=O)C(c1ccccc1)n1c(=O)c(-c2cc3ccccc3[nH]2)nc2ccccc21 (stereo unspecified) | inconclusive [inhibitor, single point] | – |
| Clc1ccc(-c2cn3c(n2)-c2ccccc2C3)cc1Cl | inconclusive [inhibitor, single point] | – |
| COc1ccccc1-n1c(=O)oc2ccc(Cl)cc2c1=O | inconclusive [inhibitor, single point] | – |
| CC(C)N(C(C)C)S(=O)(=O)c1ccc(N2CCc3ccccc3C2)nc1 | inconclusive [inhibitor, single point] | – |
| COc1ccc(CNC(=O)COC(=O)CO/N=C(\C)c2ccc3c(c2)OCO3)cc1 | – | inactive: 1.52% |
| CCC(=O)Nc1cc2nn(-c3ccc(C)cc3)nc2cc1C | inactive | – |
| COc1cccc(-c2noc(C3CCCN(C(=O)Cc4ccccc4)C3)n2)c1 (stereo unspecified) | active: 18.4 µM | – |
| COc1ccc(S(=O)(=O)N2CCC[C@H]2C(=O)N2CCC[C@H]2C(=O)NCc2ccccc2)cc1C | inconclusive [inhibitor, partial curve] | – |
| CCCc1nn2c(=O)cc(COC(=O)c3ccco3)nc2s1 | – | inactive: -7.45% |
| NC(=O)c1ccc(Oc2ccc3c(c2)CCC3)c([N+](=O)[O-])c1 | inconclusive [inhibitor, single point] | – |
| CN(C)N(Cc1ccccc1)C(=O)C(O)(c1ccccc1)c1ccccc1 | inconclusive [inhibitor, single point] | – |
| COc1ccc(CCNC(=O)Cn2c(=O)c3cccn3c3ccccc32)cc1OC | inconclusive [inhibitor, single point] | – |
| Cc1ccc(N(C(=O)Cc2cccs2)C(C(=O)NC2CCCC2)c2ccncc2)cc1 (stereo unspecified) | inconclusive [inhibitor, partial curve, poor fit] | – |
| CC(=O)Nc1ccc(C(=O)Nc2nc(-c3cc(C)n(Cc4ccccc4)c3C)cs2)cc1 | inconclusive [inhibitor, single point] | – |
| C=CCN1C(=O)C2(OCCCO2)c2cc(CCCC)ccc21 | – | inactive: -10.2% |
| COc1ccc(Cl)cc1NC(=O)CN(C)Cc1cccs1 | inconclusive [inhibitor, single point] | – |

| SMILES | Potency | activity change, negative = growth inhibition |
| --- | --- | --- |
| CC(C)(C)c1ccc(-c2nc(NCc3cccnc3)c3ccccc3n2)cc1 | inconclusive [inhibitor, single point] | – |
| COc1ccc(S(=O)(=O)N2CCOCC2)cc1NC(=O)CSc1nnc2n1CCCCC2 | – | inactive: -1.24% |
| CC1CC[C@]2(CO)CC[C@]3(C)C(=CCC4[C@@]5(C)CCC(O)C(C)(C)C5CC[C@@]43C)C2C1C (stereo partly specified) | – | inactive: 6.63% |
| CCCCC(C(=O)OCC)C(N)Cc1ccc(F)cc1 (stereo unspecified) | inconclusive [inhibitor, single point] | – |
| CCCCN(C)S(=O)(=O)c1ccc(C(=O)Nc2nnc(-c3ccco3)o2)cc1 | active: 7.31 µM | – |
| O=C1NC[C@@H](CCCCN2CCN(CCc3ccc(O)cc3)C(=O)C2=O)N(CC2CCCCC2)C1=O | – | inactive: 1.35% |
| CC(=O)Nc1c(C)nn(-c2ccccc2)c1N1CCC(C(=O)Nc2cccc(C(F)(F)F)c2)CC1 | inconclusive [inhibitor, single point] | – |
| CCCCOc1ccccc1C1CC(=O)Nc2cc(OC)c(OC)cc21 (stereo unspecified) | inconclusive [inhibitor, single point] | – |
| Cc1cccc(/C=C/c2onc(C)c2S(=O)(=O)N2CCC(C(=O)N3CCCCCC3)CC2)c1 | inconclusive [inhibitor, single point] | – |
| CCCCCN(C(=O)CCC(=O)OCCOc1cccc(Cl)c1)c1c(N)n(CCCC)c(=O)[nH]c1=O | inconclusive [inhibitor, single point] | – |
| COc1ccccc1N1CC(O)=C(c2nc3ccccc3s2)C1=N | inconclusive [inhibitor, single point] | – |
| CC(C)c1cc(C(N)=O)c(NC(=O)c2cccc(COc3ccc(Cl)cc3)c2)s1 | active: 25.9 µM | – |
| CCOC(=O)c1csc(NC(=O)c2cc(-c3ccccn3)nc3ccccc23)n1 | – | inactive: -3.59% |
| O=S(=O)(c1ccc(Cl)cc1)N1CCC2(CC1)OCCN2S(=O)(=O)c1cccs1 | inconclusive [inhibitor, single point] | – |
| CN1CCN2c3ccccc3Cc3ccccc3[C@@H]2C1 | active: 13.3 µM | – |
| COc1cccc(COc2ccc(N(C)S(=O)(=O)c3ccccc3)cc2)c1 | inconclusive [inhibitor, single point] | – |
| COc1ccc(-c2cc(C(=O)N/N=C/c3cccnc3)c3ccccc3n2)c(OC)c1 | – | inconclusive: -36.5% [inhibitor] |
| O=C(c1cccs1)N(Cc1ccco1)c1ccc(O)cc1 | inconclusive [inhibitor, single point] | – |
| CN(C)S(=O)(=O)c1ccc(C(=O)N2CCN(S(=O)(=O)c3cccs3)CC2)cc1 | – | inactive: -3.49% |
| COC(=O)c1c(NC(=O)/C=C/c2ccc(OC)c(OC)c2)sc2c1CCC2 | inconclusive [inhibitor, single point] | – |
| CN(C(=O)COC(=O)COc1ccccc1F)C1CCS(=O)(=O)C1 (stereo unspecified) | – | inactive: 8.65% |
| CCn1cc(S(=O)(=O)c2ccc(C)cc2C)c(=O)c2cc(F)c(N3CCCCC3)cc21 | inconclusive [inhibitor, single point] | – |
| Cc1noc(Cn2c(=O)c3ccccc3n(CC(=O)Nc3ccc(C(C)C)cc3)c2=O)n1 | inconclusive [inhibitor, partial curve, poor fit] | – |
